# Laboratory results from PubChem BioAssay AID652104 (National Center for Advancing Translational Sciences (NCATS), 2013).
# “And” between values parts separate entries of the source, which are not always exact repeats. Identical values can stand only once. Out of some 410,000 compounds screened, about 7,200 (1.8%) were called active. Inconclusive results, whose numbers are uncertain, are shown with a selection of clear calls. The call rests on the fitted dose curve; in most records, active means well fitted activation curve with a large enough effect; inconclusive means small, poorly fitted or top-dose-only effect, or another doubt; inactive means no such curve, though single readings can be large or run the other way. Potencies of inconclusive entries are doubtful fits and often do not repeat.
# Test: qHTS of TDP-43 Inhibitors; further: nearly all actives have a fitted effect of over 50% in size; on growth rescue (activation): % of control where 0% means no effect
# Settings: TDP-43 expressing yeast growth rescue, BacTiter-Glo, 24 h; growth rescue (activation): at 46.1 µM (top of the series) unless noted
# Procedure, shortened: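 Galactose-induced TDP-43 yeast, OD600=0.02, compound pinned; 24 hr, 30 deg C; BacTiter-Glo luminescence for growth. Inhibitors of TDP-43 toxicity read as activators.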
# Potency means the concentration at half of the fitted maximal effect; tags describe the fitted curve by direction and shape.
Compound,growth rescue (activation),Potency
COc1ccc(S(=O)(=O)c2c(SC)nn(CC(=O)Nc3ccc(C)c(Cl)c3)c2N)cc1,inactive: 26.4%,
COc1cccc(/C=C/C(=O)c2ccc3c(c2)OCO3)c1OC,,"inconclusive: 17.8 µM [activator, single point]"
Cc1ccc(-c2noc(C(C)NC(=O)c3ccco3)n2)cc1 (stereo unspecified),,"inconclusive: 1.26 µM [activator, full curve, poor fit]"
CC(OC(=O)CCOc1ccccc1)C(=O)Nc1ccc(Cl)cn1 (stereo unspecified),,"inconclusive: 12.6 µM [activator, single point]"
O=c1[nH][nH]c2c1[C@H](CCc1cccc(Cl)c1)O[C@H](C1CCCC1)C2,inactive: 0%,
O=C(Nc1nnc(C2=COCCO2)o1)c1ccc([N+](=O)[O-])s1,,"inconclusive: 11.2 µM [activator, single point]"
C=CCN(C(=O)c1oc2c(Cl)cc(C)cc2c1C)C1CCS(=O)(=O)C1 (stereo unspecified),inactive: 22%,
CC1CCN(S(=O)(=O)c2ccc3c(ccn3CC(=O)NCc3ccccc3F)c2)CC1,inactive: 5.78%,
O=C(Nc1ccccc1N1CCOCC1)c1ccco1,,"inconclusive: 14.1 µM [activator, partial curve]"
O=C(c1ccco1)N1CCN(S(=O)(=O)c2ccc(Oc3ccccc3)cc2)CC1,,"inconclusive: 35.5 µM [activator, single point]"
COc1cc(NC(=O)c2cccnc2)ccc1NC(=O)c1ccccc1Cl,,"inconclusive: 35.5 µM [activator, single point]"
O=c1[nH]cnc2nc(-c3ccccc3)c(-c3ccccc3)nc12,inactive: 11.4%,
Cc1cc(C)c2c(=O)cc(C(=O)Nc3sc4c(c3C#N)CCCC4)oc2c1,,"inconclusive: 35.5 µM [activator, partial curve, poor fit]"
COc1ccc(Nc2nc(-c3cccc(OC)c3O)nc3ccccc23)cc1,,active: 17.8 µM
CC(C)Cc1nc(N2CCN(C(=O)c3ccco3)CC2)c(C#N)c2c1CCCC2,,"inconclusive: 31.6 µM [activator, single point]"
CC(=O)c1cccc(NC(=O)C2Cc3c(-c4ccco4)ccnc3O2)c1 (stereo unspecified),,"inconclusive: 35.5 µM [activator, single point]"
O=C(N/N=C/c1ccc(OC2CSC2)cc1)c1ccc(CN2CCOCC2)cc1,,"inconclusive: 11.2 µM [activator, single point]"
O=C(COc1ccc(F)cc1)N1CCc2ccccc2C1,,"inconclusive: 20 µM [activator, partial curve]"
C(=C\c1ccccc1)/CSc1nnc(-c2cccnc2)o1,,"inconclusive: 12.6 µM [activator, single point]"
Cc1cnc(C(=O)OCC(=O)Nc2cc(Cl)ccc2C#N)cn1,,"inconclusive: 35.5 µM [activator, single point]"
O=[N+]([O-])c1cccc(-c2c(-c3ccccc3)ncc3ccc(F)cc23)c1,,"inconclusive: 12.6 µM [activator, partial curve]"
CCc1ccc(OCC(=O)Nc2ccc3[nH]ncc3c2)cc1,,"inconclusive: 7.08 µM [activator, full curve]"
Clc1cc(Cl)c2nc(N3CCOCC3)sc2c1,,"inconclusive: 35.5 µM [activator, single point]"

Compound,growth rescue (activation),Potency
COc1ccc(CCNC(=S)Nc2ccccc2C)cc1,,"inconclusive: 12.6 µM [activator, partial curve]"
Cc1onc(-c2ccccc2)c1C(=O)Nc1ccccc1N1CCOCC1,,"inconclusive: 15.8 µM [activator, single point]"
S=C1SCN(Cc2cccnc2)CN1Cc1ccccc1,,active: 25.1 µM
Cc1cc(C)c(C(N)=O)c(SCC(=O)c2cc(C)c(C)cc2C)n1,inactive: 9.64%,
O=C(/C=C/c1cccs1)NCc1ccccc1,,"inconclusive: 12.6 µM [activator, single point]"
Cc1cccn2c(=O)c3cc(C(N)=S)c(=N)n(CCCN4CCOCC4)c3nc12,inactive: -1.1%,
Cc1ccc(CN(N=Nc2nonc2N)c2nonc2N)c(C)c1,,"inconclusive: 35.5 µM [activator, single point]"
CC(C)(C)S(=O)N1Cc2cc(CO)cc(CCO)c2[C@H]1CCO (stereo partly specified),inactive: 14.8%,
Oc1cccc(-c2sc3ccccc3c2-c2ccc(OCCN3CCCCC3)cc2)c1,inactive: -1.03%,
CNC(=O)c1c(NC(=O)c2ccc(N3C(=O)CCC3=O)cc2)sc2c1CCC(C)C2 (stereo unspecified),,active: 31.6 µM
CC(O)(c1cccc(F)c1)c1nc(-c2ccoc2)cs1 (stereo unspecified),,"inconclusive: 10 µM [activator, partial curve]"
O=S(=O)(Nc1ccc2c(c1)OCO2)c1ccc(F)c(F)c1,,"inconclusive: 20 µM [activator, single point]"
Cc1ccc(CC(SCc2ccccc2)C(=O)O)cc1C (stereo unspecified),,active: 11.2 µM
O=c1[nH]cnc2cc(-c3ccc(Br)cc3)sc12,,"inconclusive: 3.55 µM [activator, partial curve]"
CC1=NN(/C(=N\c2nnc(C)s2)Nc2ccc(C)cc2)[C@H](c2ccc(C)cc2)S1,,active: 12.6 µM
Cc1ccc(C)c2c3c([nH]c12)-c1nonc1CC3,,"inconclusive: 35.5 µM [activator, single point]"
Cc1cccc(N2CCN(C(=O)COCc3cc(-c4ccc5c(c4)OCO5)on3)CC2)c1C,,"inconclusive: 35.5 µM [activator, single point] and inconclusive: 31.6 µM [activator, single point]"
Cc1ccc2nc(-c3ccc(NC(=O)COC(=O)c4ccc(Br)o4)cc3)sc2c1,inactive: -13.1%,
CCOc1ccc(CN(C(=O)c2oc3ccccc3c2C)C2CCS(=O)(=O)C2)cc1 (stereo unspecified),inactive: 6.21%,
CCOC(=O)c1[nH]c2ccccc2c1NC(=O)c1cc(OC)cc(OC)c1,inactive: 28.4%,
O/N=C1\CC(O)Cc2nonc21 (stereo unspecified),,"inconclusive: 4.47 µM [activator, single point]"
COc1ccc(C)cc1S(=O)(=O)Nc1ccc(F)c(Cl)c1,,active: 17.8 µM
C=CCOc1ccc(/C=C/C(=O)OCC(=O)NCc2cccs2)cc1,,"inconclusive: 1.26 µM [activator, full curve]"
